Measurements from the RNAGym collection of RNA variant scans (doi:10.7554/elife.90254).
Read counts are not given, so values of variants with three or more changes are uncertain.

B1: LINE1-mini (parent)
chain: GGCAGAGCUCAACACAGCGUGGCAAAGUGGCUGUGGCUAGACUGCC

Variants of: B1
Experiment: self-cleavage, relative activity (ratio to wild type); higher = more cleavage; in vitro, sequencing; the parent is a self-cleaving ribozyme

| Variant | self-cleavage |
| --- | --- |
| G2A C3A A16U U28C | 0.81 |
| A11C A16U G33A C42G | 0.01 |
| G1C G19U G35C | 0.02 |
| U38A A39U C46A | 0.15 |
| U9G A25C G33C U43A | 0.19 |
| G2A G5U C18G | 0.13 |
| G2A G7A C31U | 1.17 |
| G22U A26U G29A A41C | 0.02 |
| G17U A25G U38G C46A | 0.02 |
| G2C A6C G35A | 0.13 |
| A4G G19A G27A | 0.09 |
| G7U C8U A16G C37A | 0.43 |
| C10A A11C C18U C31A | 0.01 |
| C18G G21A C42A | 0.04 |
| C3U A4G A16U A39U C42U | 0.1 |
| C8A G33U U38A | 0.03 |
| A12C G29U C45U | 0.03 |
| C3U A6C C8G A16G U32C | 0.05 |
| G2A U9C A25G G40C C42A | 0.08 |
| U28A G30U C31U G44U C46U | 0.01 |
| G5U A25U C46G | 0.12 |
| G2U A12U G21U G27U C31A | 0.01 |
| A12C A16G C18G | 0.04 |
| C3U A25C C46A | 0.26 |

| Variant | self-cleavage |
| --- | --- |
| C23U G27A U32G G35C | 0.05 |
| G2A C8U G30A | 0.48 |
| G27U G29U C42A | 0.16 |
| A4C C8G G19U | 0.04 |
| U9C C18G G22A | 0.03 |
| G17C U20C U28C C31G | 0.01 |
| G2A A4C G40C | 0.43 |
| U9A C13U U34A C46U | 0.06 |
| A6U A11C A12U C18U G19U C37A G40U | 0.01 |
| U20C G22U U32G U38C | 0.02 |
| A11G U28G G29U C46G | 0.01 |
| A11G C15G A16G U32G G36C | 0 |
| A16U G35A G36U | 0.14 |
| C3U A12C C13G G44A | 0.02 |
| G22U C23G U38G A41U | 0.02 |
| G21A G27C G33C | 0.29 |
| G2U C15U A16U C23A U32G | 0.04 |
| U9G C18U G36A | 0.2 |
| C3G C15U G19U | 0.07 |
| G2U G35A C42G | 0.01 |
| C3G G21U U28G | 0 |
| G1U A12G G35A U43A | 0.01 |
| U9A C15A G19A C37A | 0.05 |
| G1C A4G C18A | 0.01 |

| Variant | self-cleavage |
| --- | --- |
| A25U U28A U32G | 0.35 |
| G29U U34G A39U | 0.16 |
| C10U C13A C37G C42U | 0.05 |
| G2A A4U C15G G22C G27A G29C C31G | 0.01 |
| A11C G17A G33U | 0.01 |
| C8U C10U U20G C46U | 0.07 |
| A6C U20G C45G | 0.22 |
| G5C A6G A16C C42G | 0.06 |
| C8U C13A C37G | 0.06 |
| C3A C18A U20A | 0.11 |
| C8A A14U U20C U43A | 0.14 |
| G2C G21C C45U | 0.28 |
| G5C A39G C46A | 0.05 |
| C3A C8A A12U G22A G29C | 0.54 |
| C8G C10U A14G G29A | 0.01 |
| G7U C10U G19U U20G U34G C45A | 0.06 |
| A4G C8A G27U U32A | 0.23 |
| G1U G7U G19U U20C U32G C37U G40U | 0.02 |
| C8G G17C A26U G36U | 0.05 |
| G7C U9A G22C A26C | 0.08 |
| A12G G33U U34A A41U | 0.01 |
| U32A U34A U38A | 0.02 |
| C15G C18G A24C G35C C42U | 0 |
| A12G G19C G22A C45G | 0 |

| Variant | self-cleavage |
| --- | --- |
| U20A A25U U28A A41U G44C | 0.04 |
| A4C A14U G19U A24C G27A G29C G40A | 0.02 |
| C10U A25C G27C C31G A39U G40C | 0.01 |
| G5A A25C G36A C37U | 0.27 |
| A6C C8G G19A | 0.05 |
| C3G G35A G36U | 0.96 |
| A11C G33A C37A | 0.02 |
| G30A G36C C45U | 0.02 |
| G2A G5A A6U G27C | 0.54 |
| G7A C31U A41U | 0.07 |
| A12U G19A C31G | 0.01 |
| G1U C23G A24G | 0.35 |
| G1A C10G G19U U20C G22C U34C G40C | 0.02 |
| C8G C23A U43G | 0.02 |
| C3A U9C G30A | 0.03 |
| C3U G7C G44A | 0.05 |
| A6C U34A A39U | 0.06 |
| A6C C8G A14G U28G | 0.02 |
| A4C C8U A26U | 0.06 |
| U9A A12U C18A G21U | 0.13 |
| G7C U20A C46U | 0.06 |
| G1C C15A C42G | 0 |
| G2C G7U C46G | 0.03 |
| C3A C10G G21U C31A G36U | 0.02 |

| Variant | self-cleavage |
| --- | --- |
| G2A G21C C23A U34G C45A | 0.12 |
| C15U G29A C42A | 0.02 |
| G27C G35U G36A | 0.3 |
| G5U G29U C45A | 0.39 |
| C3G G29C G30A C46G | 0.05 |
| C3G G30U C46U | 0.06 |
| A16U G17A G22U G40A | 0.02 |
| G5U U9C G29U C42G | 0 |
| A11G G29C G30C | 0.02 |
| A4C A39G C42A | 0.18 |
| A4U C8G C10U C45G | 0.05 |
| G5U C23U G35U | 0.07 |
| G1C C15U A16G G27U C46A | 0.03 |
| A11U A14G C23A | 0.09 |
| G21C C31G G40U | 0.02 |
| C8U A24G G29U C37U U38A | 0.27 |
| U28A G29U C37A A41C | 0.01 |
| G2C U28A G36U A39U | 0.07 |
| A6G C8U G17U C46U | 0.05 |
| G2U G7C G19A C23G A26C C31A G33U A41U | 0.02 |
| A6G A16U G27U | 0.02 |
| C18G G19C U28A C46U | 0.88 |
| C3U A12G C23A C45A | 0.07 |
| A6G C15U G33A | 0.23 |

| Variant | self-cleavage |
| --- | --- |
| G5A C10G C23A A24C U28A U34G A41U | 0.02 |
| A11C C15U G35U | 0.03 |
| C3G U28A G30U | 0.4 |
| A12U G19A U20G G21A U34G | 0.06 |
| A4U G7C G30U C45A | 0.13 |
| G2C C8G G19A C23U U28C A39G | 0.01 |
| G1A G2A A6U U38A | 2.06 |
| C8A G21U C42G | 0.12 |
| G17A G27U G33U | 0.02 |
| A6C C13A G22U C31G U32A G36C C45A | 0.01 |
| G27C U28G G40C | 0.07 |
| A12C A39U A41G | 0.05 |
| C10A A41G C42A | 0.02 |
| A4G A24G C31U | 0.03 |
| G5U U32C U34C | 0.07 |
| A12C G35U U38A | 0.06 |
| G17A G33C U34G C42G | 0.02 |
| A6C C23A A25G C31A U32C G36C U38G C46U | 0.01 |
| G17C G35A C45G | 0.03 |
| G21U A26C A41U | 0.39 |
| C3U U28G A41U | 0.27 |
| G2C C10U C37G | 0.02 |
| A6U G40C C42A | 0.04 |
| G2A A6U C13U | 0.84 |

| Variant | self-cleavage |
| --- | --- |
| A4C G17U G22A C42G | 0.02 |
| G7U A16G G33A G44C | 0.07 |
| A11G G22C C42U | 0.03 |
| A6G A14U C46G | 0.1 |
| G5C C13A G29C | 0.31 |
| A16C G22A G36U G40U | 0.02 |
| A12U A25U U34G | 0.02 |
| A14G A26C C42U | 0.14 |
| C3G G27A A41U | 0.3 |
| G2U A16C A24G | 0.01 |
| C3G G17U G36U | 0.47 |
| A4C C23U C42A | 0.35 |
| G7U G19A G21C A41C C45A | 0.12 |
| U20C G21U C42A | 0.15 |
| A16G G21C U32A G36U C45U | 0 |
| C10U G22A C23U | 0.17 |
| G2C U20A C31A U34G A39G C42U C45A | 0 |
| A11G C13G A26C | 0.01 |
| G7C C8G C10U | 0.05 |
| U9A A14C U20A C45U | 0.01 |
| C3U A4G C46U | 0.12 |
| C8U C10A A14U C45A | 0.04 |
| G7A A12C A25C | 0.02 |
